The values below come from PMC4336329 (PLoS ONE, 2015).

Screen size: about 310,000 compounds; about 2,200 (0.71%) showed an effect of 50% or more. The effect is printed as a negative number. The list shows a part of the results.

The target in the test is human ether-à-go-go-related gene (hERG) potassium channel (human, UniProt Q12809). The test is described as follows: primary screen, population patch clamp on CHO cells stably expressing hERG.
Sequence of human ether-à-go-go-related gene (hERG) potassium channel (Q12809 whole entry, looked up): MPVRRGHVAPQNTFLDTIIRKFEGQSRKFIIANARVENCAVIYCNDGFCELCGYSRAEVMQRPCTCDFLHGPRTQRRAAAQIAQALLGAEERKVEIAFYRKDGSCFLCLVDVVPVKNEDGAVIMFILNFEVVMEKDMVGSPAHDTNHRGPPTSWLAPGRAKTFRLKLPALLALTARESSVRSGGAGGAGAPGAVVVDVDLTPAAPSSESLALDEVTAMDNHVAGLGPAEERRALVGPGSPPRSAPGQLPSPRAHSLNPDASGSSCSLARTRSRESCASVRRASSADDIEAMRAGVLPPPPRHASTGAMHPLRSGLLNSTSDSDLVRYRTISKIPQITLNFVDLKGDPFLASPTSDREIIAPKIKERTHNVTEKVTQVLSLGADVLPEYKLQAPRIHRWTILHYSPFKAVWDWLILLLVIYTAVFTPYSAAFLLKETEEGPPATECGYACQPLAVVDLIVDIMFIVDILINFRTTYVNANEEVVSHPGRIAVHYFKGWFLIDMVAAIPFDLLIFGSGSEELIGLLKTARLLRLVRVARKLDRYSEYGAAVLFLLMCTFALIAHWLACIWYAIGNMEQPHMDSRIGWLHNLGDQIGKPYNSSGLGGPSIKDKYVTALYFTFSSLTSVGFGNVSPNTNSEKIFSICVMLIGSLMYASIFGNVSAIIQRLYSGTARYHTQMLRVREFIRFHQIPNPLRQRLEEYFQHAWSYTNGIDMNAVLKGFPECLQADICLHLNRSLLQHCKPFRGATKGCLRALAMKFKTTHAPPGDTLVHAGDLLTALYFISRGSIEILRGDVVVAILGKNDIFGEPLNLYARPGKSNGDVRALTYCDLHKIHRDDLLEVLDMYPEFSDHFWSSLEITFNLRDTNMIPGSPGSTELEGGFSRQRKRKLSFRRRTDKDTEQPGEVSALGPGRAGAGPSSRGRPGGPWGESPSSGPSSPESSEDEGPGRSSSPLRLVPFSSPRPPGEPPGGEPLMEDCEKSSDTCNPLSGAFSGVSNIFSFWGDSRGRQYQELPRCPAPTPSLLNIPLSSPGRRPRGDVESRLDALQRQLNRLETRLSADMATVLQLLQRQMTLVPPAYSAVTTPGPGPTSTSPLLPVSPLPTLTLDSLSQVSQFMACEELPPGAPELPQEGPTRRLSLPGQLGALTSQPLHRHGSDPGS
For `COc1ccc(CN2CC(C(=O)NCCc3ccccc3)CC2=O)cc1` (centres unmarked), the “hERG current change (%, negative = inhibition) at 1uM” value is -25.9%.
Consider `Cc1cc(S(=O)(=O)NCCN2CCOCC2)c(C)s1.Cl`, for which the “hERG current change (%, negative = inhibition) at 1uM” value was 19.2%.
To `O=C(O)c1ccc2c3n(nc2c1)-c1ccc(Cl)cc1CO3` belongs 11.4%; to `COC(=O)C1CN(C(=O)c2cccc(OC(F)F)c2)c2ccccc2O1` (centres unmarked), 16.6%.
In the case of `O=C(Cc1csc(Nc2nc(=S)[nH]c3ccccc23)n1)NCc1cccc(Cl)c1`, the “hERG current change (%, negative = inhibition) at 1uM” value is listed as -4.52%.
Under `CC(C)CCOCC(=O)Nc1cccc(C(=O)O)c1` stands 25%; under `COc1ccccc1N1CCN(CC(O)COc2c(OC)cccc2OC)CC1.Cl` (centres unmarked), -9.62%; under `O=c1[nH]n(-c2ccccc2)c(=O)c(Cl)c1Cl`, -0.931%.
Take `CCOC(=O)c1cc(C#N)c(N2CCCC2)nc1-c1ccccc1`: the “hERG current change (%, negative = inhibition) at 1uM” value is listed as -1.96%.
Under `CCN1CCN(CCn2c(=S)[nH]c3ccccc3c2=O)CC1` stands 8.72%.
Under `CC(C)N(Cc1nccn1C)C(=O)c1cc(COc2ccc(F)cc2Cl)on1` stands -3.88%; under `COc1ccc(-c2nc(Cn3c(SCc4ccc(F)cc4)nc4ccncc43)c(C)o2)cc1OC`, -3.36%.
Under `CCc1cccc(NC(=O)C(NC(=O)C2CCCCC2)C(C)C)c1` (centres unmarked) stands 14%; under `Cc1ccc(N2CN=c3s/c(=C\c4cccnc4)c(=O)n3C2)cc1`, -5.15%; under `O=C(Nc1ccc(N2CCOCC2)c(F)c1)c1ccncc1`, 6.63%.
Regarding `O=[N+]([O-])c1ccc(Sc2cccc3cccnc23)cc1`, the “hERG current change (%, negative = inhibition) at 1uM” value turned out to be 8.53%.
As for `O=C(c1cc(-c2ccccc2)nc2ccccc12)N1CCCC1`, the “hERG current change (%, negative = inhibition) at 1uM” value was 12.8%.
Under `O=C(CN1C(=O)C2CC=CCC2C1=O)OCCN1C(=O)c2ccccc2C1=O` (centres unmarked) stands 10.9%; under `CN(C)C(=O)c1c2c(nc3ccccc13)CCCC2`, -1.79%; under `CCOC(=O)C1CCN(C(=O)C23CC4CC(CC(C4)C2)C3)CC1`, 9.59%.
Under `CN1CCN(NC(=O)c2cc(-c3cccc(Cl)c3)nc3ccccc23)CC1` stands 0.482%.
Under `O=C(C1CCCO1)N1CCN(S(=O)(=O)c2cc(F)ccc2F)CC1` (centres unmarked) stands 16.5%; under `Cc1ccc(C)c(OCCCC(=O)Nc2nccs2)c1`, 11.7%; under `COc1cccc(NC(=O)CCc2c(C)nc3nc(CNC(=O)c4cccc(F)c4)nn3c2C)c1`, 5.48%.
With `COc1ccc(-c2nn(-c3ccccc3)cc2/C=N/Nc2ccc3ccccc3n2)cc1OC`, the “hERG current change (%, negative = inhibition) at 1uM” value stood at 7.59%.
Under `COc1ccc(NC(=O)Cc2coc3cc(C)ccc23)cn1` stands 7.61%; under `COc1cccc(Oc2cn[nH]c2-c2ccc(OC)cc2O)c1`, 8.37%; under `CCCOc1ccccc1NS(=O)(=O)c1ccc2[nH]c(=O)[nH]c2c1`, 10.9%.
To `COC(=O)C(CC(=O)c1ccc(Cl)cc1)c1ccc(C(C)C)cc1` (centres unmarked) belongs 9.34%; to `CCOC(=O)c1ccc(N/C=C/C(=O)C(C)(C)C)cc1`, 17.4%; to `COc1ccc(C(=O)NCC(=O)OCC(=O)Nc2sccc2C#N)cc1OC`, 13.1%.
Under `CC(C)C[C@@H](CO)N1CCN(Cc2cccc(C#N)c2)CCC1=O` stands 1.11%; under `CC1CN(C(=O)C(C)N2CCN(c3cccc(Cl)c3)CC2)CC(C)O1` (centres unmarked), 5.57%.
Consider `O=C(O)Cn1cc2c(n1)CCCC2`, for which the “hERG current change (%, negative = inhibition) at 1uM” value amounted to 12.3%.
For the compound `OC(CNCC1(N2CCCCC2)CCCCC1)COc1ccc(Cl)cc1Cl` (centres unmarked), the “hERG current change (%, negative = inhibition) at 1uM” value is recorded as -74.2%.
To `COc1ccc(C2CC(c3cccs3)Nc3nnnn32)cc1` (centres unmarked) belongs -0.191%.
To `Cc1ccc(/C(O)=C2\C(=O)C(=O)N(CC(C)O)C2c2ccc(N(C)C)cc2)cc1` (centres unmarked) belongs 13.8%.
To `O=C(CN1CCC(C(=O)c2ccc(F)cc2)CC1)Nc1ccccc1` belongs -10.5%; to `CC1SC(c2cccc(Cl)c2)NC1=O` (centres unmarked), 2.86%; to `COc1ccc(-c2cc(C(=O)N3CCC3)c3ccccc3n2)cc1OC`, 3.5%.
In the case of `COCc1c(C(=O)OCc2c(C)noc2C)oc2ccccc12`, the “hERG current change (%, negative = inhibition) at 1uM” value is on record as 9.37%.
Under `O=C(NNC(=S)Nc1ccc(F)cc1F)c1ccco1` stands -0.963%; under `COc1ccccc1NS(=O)(=O)c1ccc(NC(C)=O)cc1`, 10.5%.
`CC1=NN(C(=O)c2ccccc2C)C(O)(c2ccc(Cl)cc2)C1` (centres unmarked): the “hERG current change (%, negative = inhibition) at 1uM” value amounted to 16.7%.
To `COc1ccc(CCNC(=O)c2ccc(Cl)nc2)cc1` belongs 11.8%.
With `S=C(c1ccc(Cl)cc1)N1CCOCC1`, the “hERG current change (%, negative = inhibition) at 1uM” value is 2.47%.
Under `COCc1cc(C)nc(OCC(=O)N/N=C/c2ccc(O)cc2)c1C#N` stands -0.96%; under `CCc1ccc(-c2nc(CS(=O)CC(=O)NCc3ccccc3)c(C)o2)cc1` (centres unmarked), 8.64%.
`CCn1c(N2CCN(S(=O)(=O)CC)CC2)nc2ccccc21`: the “hERG current change (%, negative = inhibition) at 1uM” value is 2.39%.
To `CCCNC(=O)[C@@H]1CCCN1C(=O)C1CCN(S(=O)(=O)c2ccc(C)cc2)CC1` belongs 2.84%; to `Cc1nc(N2CCN(C(=O)c3cccs3)CC2)c2c3c(sc2n1)CCCC3`, 1.12%.
To `CCOC(=O)C1=C(N)Oc2ccc3ccccc3c2C1c1ccc(O)c(OC)c1` (centres unmarked) belongs 5.28%; to `O=C(O)c1cn(-c2ccccc2)nc1-c1ccncc1`, 29.4%.
To `COc1ccc(CNC(=S)NCc2ccc(Cl)cc2)cc1OC` belongs -7.46%; to `CCOC(=O)C1=C(C)NC(C)=C(C(=O)OCC)C1/C=C/c1ccccc1`, 0.179%.
Consider `COc1ccc(C(=S)N2CCN(c3cccc(Cl)c3)CC2)c(OC)c1`, for which the “hERG current change (%, negative = inhibition) at 1uM” value came to 9.95%.
Under `Cc1ccc(CN2CCN(Cc3ccon3)CC2CCO)cc1` (centres unmarked) stands 8.87%; under `COC(=O)c1cc(OC)nc2c1c(=O)n(C)c(=O)n2C`, 8.35%.
To `Cc1ccc(CNC(=O)COC(=O)c2ccc(S(=O)(=O)N(C)C)cc2)cc1` belongs 17.8%.
